# Out of some 390,000 compounds screened, about 2,200 (0.56%) were called active. Inconclusive means that the source gave no clear call. Such entries were picked first, then a sample of the others. Calls follow the shape of the dose curve; as a rule, active = well fitted inhibition curve with a large enough effect; inconclusive = small, poorly fitted or top-dose-only effect; inactive = no such curve, though single readings can be large or run the other way. Potencies of inconclusive entries are doubtful fits and often do not repeat.
# Target: Chromobox protein homolog 1 (Homo sapiens) (UniProt P83916)
# Sequence of UniProt P83916 (P83916 whole entry, looked up): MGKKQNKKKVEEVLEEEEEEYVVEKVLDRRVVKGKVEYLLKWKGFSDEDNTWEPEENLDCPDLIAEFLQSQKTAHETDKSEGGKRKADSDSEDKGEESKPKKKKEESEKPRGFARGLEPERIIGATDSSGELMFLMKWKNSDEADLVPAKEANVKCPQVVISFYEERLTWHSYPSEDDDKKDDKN
# Assay: HTS for Inhibitors of HP1-beta Chromodomain Interactions with Methylated Histone Tails; also: nearly all actives have a fitted effect of over 70% in size
# Conditions: AlphaScreen HP1-beta / biotin-H3K9me3 peptide binding; series mostly up to 114 µM; activity change, negative = inhibition: at the top concentration
# How it was run: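 AlphaScreen: HP1-beta (50 nM) preformed 30 min with biotin-H3(1-18)K9me3 peptide (50 nM) in PBS pH 7.4, 0.01% Tween-20. Compound added for 30 min at RT, then streptavidin donor/nickel chelate acceptor beads (10 ug/mL) for 30 min.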
# Potency is read from the fitted curve at half-maximal effect; tags tell the direction and shape of the fitted curve.
Compound,Potency,"activity change, negative = inhibition"
Cc1ccc(C(=O)NN2C(=O)/C(=C/c3cccn3C)SC2=S)cc1,"inconclusive: 44.7 µM [inhibitor, partial curve]",–
O=C(CSc1nnc(-c2ccccc2)c(-c2ccccc2)n1)NCc1ccco1,"inconclusive: 44.7 µM [inhibitor, partial curve]",–
CCOc1ccccc1N1CCN(C(=O)c2ccc3[nH]c4c(c3c2)CCCC4)CC1,"inconclusive: 17.8 µM [inhibitor, partial curve, poor fit]",–
CN1CCN(C(=O)c2ccc3c(=O)n(-c4ccc(F)cc4)c(=S)[nH]c3c2)CC1,–,inactive: 43.1%
CC1=NN(c2ccccc2)C(=O)/C1=C\c1ccc(Oc2ccc([N+](=O)[O-])cc2[N+](=O)[O-])cc1,"inconclusive: 14.1 µM [inhibitor, full curve]",–
COc1cc(/C=C2\C(=O)ON=C2c2ccc(Cl)cc2)ccc1O,"inconclusive: 25.1 µM [inhibitor, full curve]",–
CCOc1cc(/C=N/Nc2ccccc2Cl)ccc1OCC(=O)O,"inconclusive: 44.7 µM [inhibitor, single point]",–
Cc1ccc(CNC(=O)c2ccc(Cn3cc(-c4ccc(C)cc4)nc3-c3ccncc3)cc2)cc1,"inconclusive: 35.5 µM [inhibitor, partial curve]",–
Cc1ccc(O)c(NC(=O)COCc2cc(-c3ccco3)on2)c1,"inconclusive: 89.1 µM [inhibitor, single point]",–
CC(NC(=O)c1ccccc1F)C1CC1 (stereo not drawn),"inconclusive: 89.1 µM [inhibitor, single point]",–
Cc1ccc(-c2cc(C(=O)Nc3cccnc3)c3ccccc3n2)o1,"inconclusive: 70.8 µM [inhibitor, partial curve]",–
CC12CCC(c3nnc(SCC(=O)Nc4cccc5ccccc45)nc31)C2(C)C (stereo not drawn),"inconclusive: 39.8 µM [inhibitor, single point]",–
CCCCn1c(SCC(=O)Nc2cccc(C)n2)nnc1-c1ccco1,"inconclusive: 39.8 µM [inhibitor, single point]",–
Cc1ccc(-c2cc(C(=O)Nc3ccccn3)c3ccccc3n2)o1,"inconclusive: 70.8 µM [inhibitor, partial curve]",–
O=C1Nc2ccccc2C1=Nc1cccc(Cl)c1,–,inactive: 19.8%
CC(=O)Nc1cc(O)c2nonc2c1O,"inconclusive: 10 µM [inhibitor, partial curve, poor fit]",–
COc1ccc(C2CC(=O)N3CN(C4CCCCC4)CSC3=C2C#N)cc1 (stereo not drawn),"inconclusive: 14.1 µM [inhibitor, full curve, poor fit]",–
O=C1N(Cc2ccccc2)CC2(Br)COCOC12O (stereo not drawn),active: 7.08 µM,–
Cc1ccc(NC(=S)NCC23C=CC(O2)C2C(=O)N(c4ccc(C)cc4)C(=O)C23)cc1 (stereo not drawn),"inconclusive: 89.1 µM [inhibitor, single point]",–
O=C(NC1CCCC1)c1cc(=O)[nH]c2ccccc12,–,inactive: -5.51%
c1cc2c(cc1NC1CCCCCC1)OCO2,"inconclusive: 56.2 µM [inhibitor, partial curve, poor fit]",–
CCn1ccnc1CN(C)C(=O)CCc1nnc(CCC2CCCCC2)o1,"inconclusive: 50.1 µM [inhibitor, partial curve]",–

Compound,Potency,"activity change, negative = inhibition"
O=C(NCCN1C(=O)S/C(=C\c2ccccc2)C1=O)C1CCN(S(=O)(=O)c2cccs2)CC1,"inconclusive: 20 µM [inhibitor, partial curve]",–
O=C(NNC(=O)c1ccc(Br)cc1)c1ccncc1,–,inactive: 50.5%
COc1ccc(C2N(c3ccccc3)CCN2c2ccccc2)cc1O,"inconclusive: 35.5 µM [inhibitor, partial curve]",–
C=CCN1C(=O)/C(=C\C=C2\N(C)c3ccccc3C2(C)C)SC1=S,"inconclusive: 2.51 µM [inhibitor, partial curve, poor fit]",–
COc1ccc(Nc2nnc(-c3ccc(C)c(S(=O)(=O)N4CCOCC4)c3)c3ccccc23)cc1,–,inactive: 34.9%
COc1cccc(CNCC(=O)NC(=O)NC2CCCC2)c1,"inconclusive: 44.7 µM [inhibitor, partial curve]",–
CCN(CC)c1ccc(NC(=S)NC(=O)Cc2ccccc2)cc1,"inconclusive: 11.2 µM [inhibitor, full curve, poor fit]",–
O=C(O)c1cnc2ccccc2n1,"inconclusive: 35.5 µM [inhibitor, single point]",–
Cc1cc(=O)[nH]c(SCC(=O)Nc2nc3ccccc3s2)n1,–,inactive: 27.7%
COc1ccc(N2C(=O)/C(=C/c3cccs3)NC2=S)cc1,"inconclusive: 8.91 µM [inhibitor, full curve]",–
Cc1ccc(/C=N/N=C/c2ccc(C)cc2)cc1,"inconclusive: 39.8 µM [inhibitor, single point]",–
Cc1ccccc1N1CCN(Cc2ccc(Br)o2)CC1,"inconclusive: 35.5 µM [inhibitor, partial curve]",–
O=C(CSCc1ccc(Cl)cc1)NCCSCc1ccco1,"inconclusive: 79.4 µM [inhibitor, partial curve]",–
CCOC(=O)c1c(C)[nH]c(C(=O)CSc2nnc(C3CC3)n2N)c1C,"inconclusive: 39.8 µM [inhibitor, single point]",–
CCOc1ccc(S(=O)(=O)NCCC(=O)N2CCN(c3ccc(OC)cc3)CC2)cc1,"inconclusive: 25.1 µM [inhibitor, full curve, poor fit]",–
Fc1ccccc1OCCCN1CCOCC1,"inconclusive: 70.8 µM [inhibitor, partial curve, poor fit]",–
COc1ccc(Br)cc1CN(C)CC(=O)Nc1cccc(S(=O)(=O)N2CCCC2)c1,"inconclusive: 14.1 µM [inhibitor, full curve]",–
c1ccc(Nc2nc(-c3ccccc3)c(-c3ccccc3)s2)cc1,–,inactive: 64%
COc1ccccc1C=NN1CCCCCC1,"inconclusive: 56.2 µM [inhibitor, partial curve, poor fit]",–
CN1CCN(C(=S)NC(=O)c2ccc(Cl)cc2)CC1,"inconclusive: 56.2 µM [inhibitor, partial curve, poor fit]",–
COC(=O)NC(=S)Nc1ccc(Oc2ccc(Cl)cc2Cl)c(Cl)c1,"inconclusive: 8.91 µM [inhibitor, single point]",–

# Source: PubChem BioAssay AID540317 (National Center for Advancing Translational Sciences (NCATS), 2011)
